Data reported in the supplement of paper PMC6609913.
Counter-ions that a name gives are not always drawn. ± gives the standard deviation of the averaged measurements. The full ranking holds about 1,300 compounds; the median of “normalised cell viability” is about 1, and the lowest 2% start at about 0.15. The list shows a part of the results.

Tested on: V-C8 + BRCA2 (BRCA2-proficient hamster cells)
Test: normalised cell viability (fraction of plate median); higher = more viable cells (less toxic)
Settings: 5 µM
How it was run: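 Hamster V-C8 cells lacking BRCA2 and V-C8 cells with BRCA2 restored were seeded in 96-well plates. Library drugs (10 mM DMSO stocks) were added 24 h later at 5 μM in 100 μl medium, next to DMSO control wells, for 3 days (screen 1) or 6 days (screen 2). Cell viability was read by resazurin assay, median-plate normalised (modified robust per cent of sample), and triplicate wells were averaged.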

Row | SMILES | normalised cell viability (treatment time: 3 days) | normalised cell viability (treatment time: 6 days)
1 | CC(C)NC[C@@H](O)COc1ccc(CC(N)=O)cc1 [(R)-(+)-Atenolol] | 0.861 ± 0.044 | 0.9064 ± 0.0033
2 | Cc1c(NC(=O)c2cccnc2)c(=O)n(-c2ccccc2)n1C [Nifenazone] | 1.01 ± 0.042 | 0.987 ± 0.044
3 | CS(=O)(=O)OCCCCOS(C)(=O)=O [Busulfan] | 0.881 ± 0.056 | 1.01 ± 0.013
4 | COc1cccc2c1C(=O)c1c(O)c3c(c(O)c1C2=O)C[C@@](O)(C(C)=O)C[C@@H]3O[C@H]1C[C@H](N)[C@H](O)[C@H](C)O1 [Daunorubicin hydrochloride] | 0.136 ± 0.0082 | 0.128 ± 0.015
5 | C=CC1=C(C(=O)O)N2C(=O)[C@@H](NC(=O)/C(=N\O)c3csc(N)n3)[C@H]2SC1 [Cefdinir] | 1.021 ± 0.0088 | 1.06 ± 0.11
6 | Cc1cn([C@H]2C=C[C@@H](CO)O2)c(=O)[nH]c1=O [Stavudine] | 1.08 ± 0.074 | 0.983 ± 0.027
7 | CC(=O)NS(=O)(=O)c1ccc(N)cc1 [Sulfacetamide sodic hydrate] | 0.989 ± 0.033 | 0.968 ± 0.065
8 | CCN(CC)CC(=O)Nc1c(C)cccc1C [Lidocaïne hydrochloride] | 0.982 ± 0.017 | 0.968 ± 0.096
9 | CC(=O)OCC(=O)[C@@]12OC(C)(C)O[C@@H]1C[C@H]1[C@@H]3C[C@H](F)C4=CC(=O)C=C[C@]4(C)[C@@]3(F)[C@@H](O)C[C@@]12C [Fluocinonide] | 1.04 ± 0.017 | 1.06 ± 0.04
10 | c1ccc2c(CC3=NCCN3)cccc2c1 [Naphazoline hydrochloride] | 1.12 ± 0.025 | 1.1 ± 0.049
11 | CO[C@@H]1[C@@H](O[C@@H]2O[C@H](C)[C@@H](O[C@H]3C[C@@](C)(O)[C@@H](OC(=O)CC(C)C)[C@H](C)O3)[C@H](N(C)C)[C@H]2O)[C@@H](CC=O)C[C@@H](C)[C@@H](O)/C=C/C=C/C[C@@H](C)OC(=O)C[C@H]1OC(C)=O [Josamycin] | 0.841 ± 0.045 | 0.863 ± 0.04
12 | CC(=O)CC(c1ccccc1)c1c(O)c2ccccc2oc1=O (stereo unspecified) [Warfarin] | 0.943 ± 0.044 | 1.02 ± 0.033
13 | OCCN(CCO)c1nc(N2CCCCC2)c2nc(N(CCO)CCO)nc(N3CCCCC3)c2n1 [Dipyridamole] | 1.01 ± 0.028 | 1.05 ± 0.071
14 | O=C(O)c1ccccc1C(=O)Nc1ccc(S(=O)(=O)Nc2nccs2)cc1 [Phthalylsulfathiazole] | 1.03 ± 0.053 | 1.14 ± 0.026
15 | CN(c1nccc(=O)[nH]1)C1CCN(c2nc3ccccc3n2Cc2ccc(F)cc2)CC1 [Mizolastine] | 1.05 ± 0.06 | 1.1 ± 0.07
16 | CN1CCN(C(c2ccccc2)c2ccccc2)CC1 [Cyclizine hydrochloride] | 1.06 ± 0.043 | 1.07 ± 0.048
17 | CN1CCC(=C2c3ccccc3Sc3ccccc32)CC1 [Pimethixene maleate] | 0.969 ± 0.027 | 1.01 ± 0.032

Row | SMILES | normalised cell viability (treatment time: 3 days) | normalised cell viability (treatment time: 6 days)
18 | Nc1c2ccccc2nc2ccccc12 [Aminacrine] | 0.139 ± 0.0043 | 0.156 ± 0.024
19 | C[C@H](CCC(=O)O)[C@H]1CC[C@H]2[C@@H]3[C@@H](O)C[C@@H]4C[C@H](O)CC[C@]4(C)[C@H]3CC[C@]12C [Urosiol] | 0.901 ± 0.091 | 0.899 ± 0.04
20 | C#C[C@]1(O)CC[C@H]2[C@@H]3CCC4=CCCC[C@@H]4[C@H]3CC[C@@]21C [Lynestrenol] | 1.11 ± 0.072 | 1.01 ± 0.12
21 | O=C(CCCN1CCN(c2ccccn2)CC1)c1ccc(F)cc1 [Azaperone] | 1.1 ± 0.34 | 0.902 ± 0.052
22 | NC[C@@H]1O[C@@H](O[C@H]2[C@H](O)[C@@H](O[C@H]3O[C@H](CO)[C@@H](O)[C@H](N)[C@H]3O)[C@H](N)C[C@@H]2N)[C@@H](O)[C@H](O)[C@H]1O [Kanamycin A sulfate] | 0.883 ± 0.056 | 1.04 ± 0.053
23 | COC(=O)C1=C(C#N)NC(C)=C(C(=O)OC(C)C)C1c1cccc([N+](=O)[O-])c1 (stereo unspecified) [Nilvadipine] | 0.996 ± 0.018 | 1.11 ± 0.032
24 | CC1CC(OC(=O)c2ccccc2O)CC(C)(C)C1 (stereo unspecified) [Homosalate] | 1.03 ± 0.04 | 1.02 ± 0.074
25 | Nc1c2c(nc3ccccc13)CCCC2 [Tacrine hydrochloride] | 0.905 ± 0.038 | 1.09 ± 0.014
26 | CCN(CC)C(=S)SSC(=S)N(CC)CC [Disulfiram] | 0.946 ± 0.031 | 0.939 ± 0.022
27 | C/C(=C(\CCOP(=O)(O)O)SC(=O)c1ccccc1)N(C=O)Cc1cnc(C)nc1N [Benfotiamine] | 1.01 ± 0.02 | 1.04 ± 0.016
28 | CC1(C)O[C@@H]2C[C@H]3[C@@H]4CCC5=CC(=O)C=C[C@]5(C)[C@H]4[C@@H](O)C[C@]3(C)[C@]2(C(=O)CO)O1 [Desonide] | 0.965 ± 0.092 | 0.953 ± 0.025
29 | CC[C@H]1OC(=O)C[C@@H](O)[C@H](C)[C@@H](O[C@@H]2O[C@H](C)[C@@H](O[C@H]3C[C@@](C)(O)[C@@H](O)[C@H](C)O3)[C@H](N(C)C)[C@H]2O)[C@@H](CC=O)C[C@@H](C)C(=O)/C=C/C(C)=C/[C@@H]1CO[C@@H]1O[C@H](C)[C@@H](O)[C@@H](OC)[C@H]1OC [Tylosin] | 1.07 ± 0.015 | 0.7 ± 0.08
30 | O=C(CCCCCCC(=O)Nc1ccccc1)NO [Vorinostat] | 0.132 ± 0.0091 | 0.17 ± 0.021
31 | COC(=O)C1=C(C)NC(C)=C(C(=O)OC2CCCN(Cc3ccccc3)C2)C1c1cccc([N+](=O)[O-])c1 (stereo unspecified) [Benidipine hydrochloride] | 0.988 ± 0.065 | 0.97 ± 0.04
32 | C[C@]12C[C@H](O)[C@H]3[C@@H](CCC4=CC(=O)CC[C@@]43C)[C@@H]1CC[C@@H]2C(=O)CO [Corticosterone] | 1.09 ± 0.064 | 1.028 ± 0.0075
33 | CC1(C)S[C@@H]2[C@H](NC(=O)[C@H](C(=O)O)c3ccsc3)C(=O)N2[C@H]1C(=O)O [Ticarcillin sodium] | 1.02 ± 0.021 | 1.04 ± 0.097
